In all, about 310,000 compounds went through this assay and about 2,200 (0.71%) showed an effect of 50% or more. The effect is printed as a negative number. Some of the results follow.
Target: human ether-à-go-go-related gene (hERG) potassium channel (human, UniProt Q12809)
Assay: primary screen, population patch clamp on CHO cells stably expressing hERG

Chain of human ether-à-go-go-related gene (hERG) potassium channel (Q12809 whole entry, looked up): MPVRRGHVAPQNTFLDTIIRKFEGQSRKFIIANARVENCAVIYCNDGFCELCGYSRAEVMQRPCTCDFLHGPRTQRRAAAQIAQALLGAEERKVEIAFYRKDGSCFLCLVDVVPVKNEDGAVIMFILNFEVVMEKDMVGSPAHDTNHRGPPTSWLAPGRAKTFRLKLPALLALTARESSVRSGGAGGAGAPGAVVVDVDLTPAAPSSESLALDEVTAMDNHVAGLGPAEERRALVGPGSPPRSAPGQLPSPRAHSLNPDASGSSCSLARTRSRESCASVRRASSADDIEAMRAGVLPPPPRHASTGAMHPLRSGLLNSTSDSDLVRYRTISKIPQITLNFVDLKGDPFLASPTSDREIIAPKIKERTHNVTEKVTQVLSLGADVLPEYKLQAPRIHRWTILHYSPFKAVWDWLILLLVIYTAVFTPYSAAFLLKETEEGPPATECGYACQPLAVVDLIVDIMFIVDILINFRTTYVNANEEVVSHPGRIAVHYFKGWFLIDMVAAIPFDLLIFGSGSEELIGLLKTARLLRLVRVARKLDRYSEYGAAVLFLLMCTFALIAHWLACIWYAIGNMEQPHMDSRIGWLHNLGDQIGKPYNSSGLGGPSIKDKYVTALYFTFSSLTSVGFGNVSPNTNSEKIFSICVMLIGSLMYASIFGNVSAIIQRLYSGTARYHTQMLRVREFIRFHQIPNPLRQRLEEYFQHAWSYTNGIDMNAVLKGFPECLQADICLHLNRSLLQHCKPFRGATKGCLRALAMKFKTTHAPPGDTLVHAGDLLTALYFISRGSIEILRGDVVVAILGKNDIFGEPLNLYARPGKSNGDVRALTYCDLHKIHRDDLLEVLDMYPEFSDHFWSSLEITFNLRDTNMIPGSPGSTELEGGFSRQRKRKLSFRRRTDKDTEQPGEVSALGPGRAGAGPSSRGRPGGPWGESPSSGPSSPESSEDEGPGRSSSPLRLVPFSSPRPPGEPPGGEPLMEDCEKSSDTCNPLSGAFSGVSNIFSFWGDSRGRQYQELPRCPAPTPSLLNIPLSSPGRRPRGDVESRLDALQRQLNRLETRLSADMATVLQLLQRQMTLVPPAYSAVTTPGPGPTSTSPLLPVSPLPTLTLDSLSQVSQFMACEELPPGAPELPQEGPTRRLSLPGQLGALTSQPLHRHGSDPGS

Structure (SMILES) | hERG current change (%, negative = inhibition) at 1uM [%]
CCCOc1ccc(C(=O)NNC(=O)CCNC(=O)c2ccco2)cc1OC | 10.6
CCOc1ccc(-c2nnc(SCC(=O)Nc3cc(C)on3)o2)cc1 | 14.9
CCc1ccc(N2CC(C)Cn3c2nc2c3c(=O)[nH]c(=O)n2C)cc1 (stereo not drawn) | 12.4
[O-][n+]1onc2c1C(N1CCOCC1)CCC2N1CCOCC1 (stereo not drawn) | 4.24
COc1ccc(C(c2nnnn2C2CCCCC2)N2CCN(c3ccc(OC)cc3)CC2)cc1 (stereo not drawn) | -6.19
Cc1ccc(-c2ccc(/C=N/NC(=O)Cc3nnc(N)s3)o2)cc1Cl | 3.31
CCCCC(CC)COC1(c2ccccc2)OC(=O)c2ccccc21 (stereo not drawn) | 1.85
COc1ccc(-c2[nH]ncc2-c2cnn(-c3ccccc3)c2)c(O)c1 | -2.51
Cc1nc(-c2ccncc2)sc1C(=O)Nc1ccc(Br)cc1 | 12.6
CCc1nnc(NC(=O)C2CC(=O)N(CCc3ccc(F)cc3)C2)s1 (stereo not drawn) | 11.1
COc1cc(OC)cc(C(=O)Nc2ccc(N3CCN(C(=O)c4cccs4)CC3)cc2)c1 | 0.936
CC(C)(C)c1ccc(SCCc2ccncc2)cc1 | 17.4
Cc1cc(C(=O)NNC2CC(=O)N(c3ccc4ccccc4c3)C2=O)c(C)o1 (stereo not drawn) | 12.3
O=C(NC1(C(F)(F)F)NC(=O)N(C2CCCC2)C1=O)C1CC1 (stereo not drawn) | 12.6
O=C(Cn1nnc(-c2ccc(Cl)cc2)n1)NC1CCS(=O)(=O)C1 (stereo not drawn) | 0.0052
CC(=O)O.COc1ccc2nccc(/C=C/c3ccnc4ccc(OC)cc34)c2c1 | -3.3
Cc1ccnc(N2CCC(C(=O)NNC(=O)c3ccccc3C)CC2)n1 | 2.96
CC(C)(C)c1ccc(NC(=S)NCc2cccnc2)cc1 | 9.46
Cn1cccc1CC(=O)N/N=C/c1ccc([N+](=O)[O-])cc1 | 9.3
CCCc1cc(=O)oc2cc(OCC(=O)NC3CCN(Cc4ccccc4)CC3)ccc12 | -31.3
O=S(=O)(NCC(c1ccc2c(c1)OCO2)N1CCOCC1)c1ccc(Br)cc1 (stereo not drawn) | 12.6
CCOC(=O)NC(CC(=O)O)c1ccc(OC)c(OC)c1 (stereo not drawn) | -1.33
COc1ccc2nc(N3CCN(C(=O)c4ccc([N+](=O)[O-])o4)CC3)sc2c1 | -14.3

Structure (SMILES) | hERG current change (%, negative = inhibition) at 1uM [%]
CCNC(=S)NCc1ccc2[nH]c(C)cc2c1 | 12.7
Cc1cc(/C=C2/SC(=O)N(CC(=O)N3CCCC3)C2=O)ccc1N1CCOCC1 | 8.86
O=C(c1ccc2nc(-c3ccco3)c(-c3ccco3)nc2c1)N1CCN(c2ncccn2)CC1 | -4.63
CCOC(=O)c1c(NC(NC(C)=O)C(Cl)(Cl)Cl)sc2c1CCCC2 (stereo not drawn) | 7.76
CCn1cc(-c2cc(C(F)(F)F)n3nc(C(=O)O)cc3n2)c(C)n1 | 0.618
C/C(=N\NC(=O)c1cc(C)oc1C)c1ccc2ccccc2c1 | 14
Cn1nccc1C(=O)Nc1cc(Cl)ccc1Cl | 11.3
Cc1ccc2nc(-c3ccccn3)cc(C(=O)N3CCN(c4ncccn4)CC3)c2c1 | 9.43
CCCOC1CCCN(C(=O)c2cc(COc3ccc(F)c(F)c3)on2)C1 (stereo not drawn) | 17.1
OC1(C#CCCN2CCCCC2)c2ccccc2-c2ccccc21 | 0.302
CCOC(=O)C1(Cc2ccccc2Cl)CCN(S(=O)(=O)N(C)C)CC1 | 13.4
CCOC(=O)c1c(C)[nH]c(C)c1S(=O)(=O)NCCCc1ccco1 | 7.87
O=C1CSC(=S)N1/N=C/c1ccc(C(F)(F)F)cc1 | 14.7
COc1ccc(C2CC(c3ccc(Br)cc3)=NN2C(=O)CSC2=NCCS2)cc1 (stereo not drawn) | 9.46
O=C(OC1CCOC1=O)c1ccc(Cl)c(S(=O)(=O)N2CCCCC2)c1 (stereo not drawn) | 16.1
CN(C)/C=C/C=C1C(=O)CCCC1=O | 10.2
Cc1oc(-c2ccc(Cl)cc2)nc1CSCC(=O)NCCCN1CCOCC1 | 10.2
CCN(CC)c1nc(C#N)cc(-c2ccc(OC)cc2)n1 | 0.63
COc1ccccc1C(=O)Nc1ccc(OCC(=O)N2CC(C)CC(C)C2)cc1 (stereo not drawn) | -4.53
CCC(C)(C)n1nnnc1C(c1ccc2ncccc2c1)N1CCN(c2ccc(O)cc2)CC1 (stereo not drawn) | -0.777
FC(F)(F)c1cnc(C(c2ccccc2)c2ncn[nH]2)c(Cl)c1 (stereo not drawn) | 14.2
Cc1cccc(C(C(=O)NCc2ccc(F)cc2)N(C(=O)c2csnn2)C2CC2)c1 (stereo not drawn) | 5.6

Reference: paper PMC4336329 (PLoS ONE, 2015)
